Assay results from ChEMBL document CHEMBL4888484, “Replenishing the malaria drug discovery pipeline: Screening and hit evaluation of the MMV Hit Generation Library 1 (HGL1) against asexual blood stage Plasmodium falciparum ,using a nano luciferase reporter read-out” (2022).
About 540 (0.36%) of roughly 150,000 compounds showed an effect of 50% or more. The list shows a part of the results.

These compounds were tested on Plasmodium falciparum (assay: Primary screen in NF54 nanoGlo assay, in single point, at 2uM, 72h; a lower Z score goes with more inhibition). Conditions: timepoint 72 hour.
Assay type: functional, Erythrocyte

SMILES | % Inhibition [%] | Z score
C[C@@H](CN1CCCC1)c1nc(C2CC2)nn1CCO | -4 | 0.73
COc1ncccc1C(=O)NCc1nc(C)cs1 | -14 | 2.69
O=C(C#Cc1ccccc1)N1CCO[C@H](c2ccco2)C1 | 0 | -0.02
COCCCN1C(=O)CC(CC(=O)N2CCC[C@H]2CO)(c2ccccc2Cl)C1=O (stereo partly drawn) | -13 | 1.74
O=C(CCc1cccnc1)Nc1nc(-c2cccc3ccccc23)cs1 | -20 | 2.33
Cc1cccc(-c2ocnc2C(=O)N2CCC[C@@H]2CCc2noc(C)n2)c1 | 1 | -0.13
CCCNCc1ccc(OC(F)F)cc1 | -2 | 0.22
Cc1nn(C)c(C)c1CNC(=O)Cc1nnc(O)c2ccccc12 | -1 | 0.13
Cc1oc(C)c(C(=O)Nc2nnc(C3CC3)s2)c1C | -12 | 1.21
COc1ccc(N2C(=O)c3ccccc3N[C@]23C(=O)N(C)c2ccccc23)cc1 | -6 | 0.72
Cc1ncn(C)c1C(=O)N1CC[C@H](C(C)(C)O)C1 | 4 | -0.7
C[C@H]1CCCN(C(=O)c2nc[nH]c2C(=O)NC2CCCCC2)C1 | 15 | -1.79
CC(C)N1CCN(C(=O)c2ccc(-c3ccc4c(cnn4C)c3)cc2)CC1 | 14 | -1.86
C[C@H](C(=O)Nc1ccc(F)cc1F)C1CCN(C(=O)Nc2ccccc2)CC1 | 0 | 0.08
CCOc1cc2cc(c1)C(=O)N(C)CC(=O)N[C@@H]1CN(C(=O)c3cc(CC(C)C)on3)CC[C@@H]1OCc1cccc(c1)O2 | 11 | -1.47
O=C(N1CC[C@H](N2CCc3ccccc3C2)C1)C1(c2ccccc2)CCOCC1 | 3 | -0.43
CC(C)Cn1ccc(C(=O)N[C@H](c2ccncc2)C2CC2)n1 | -5 | 0.56
Cc1nc(CN2C[C@@H](CC(C)C)CC2=O)n(C)n1 | -21 | 2.07
O=C(c1ccc(F)c(F)c1)N1CCC2(CCC(O)CC2)CC1 | 33 | -3.77
COCC(=O)N(CC(=O)N1CCc2sccc2C1COc1ccccc1C)CC1CCCO1 (stereo not drawn) | -3 | 0.41
CC1CCCCC1NC(=O)C(c1ccc(Cl)cc1Cl)N1CCOCC1 (stereo not drawn) | 0 | -0.05

SMILES | % Inhibition [%] | Z score
CC(C)C(NC(=O)C1CCN(C)C(=O)C1)c1ccc(F)cc1 (stereo not drawn) | -5 | 0.74
O=C(NC[C@@H](c1cccnc1)N1CCCCC1)c1cnc(-c2ccncc2)nc1 | -1 | 0.2
C[C@H]1CCC(=O)N1c1cccc(NC(=O)NCCc2cn[nH]c2)c1 | -3 | 0.68
Cc1cc(CC(=O)NCCCc2nnc3ccccn23)on1 | -19 | 2.38
CNc1cc(C(=O)N2CCn3nc(CCC(=O)NC4CC4)cc3C2)ccn1 | -14 | 2.19
COc1ccc(N(C)S(=O)(=O)c2cc3c(cc2Cl)Oc2cc(C)ccc2NC3=O)cc1 | -10 | 1.4
N#CCC1(O)CN(Cc2cc(F)cc(F)c2)C1 | 4 | -0.63
CCC(=O)Nc1ccc(N2CCN(C(=O)NC(C)C)CC2)c(C(=O)N2CCCCC2)c1 | -4 | 0.65
C[C@@H]1CNCCN1C(=O)NCc1ccc2c(n1)CCCC2 | 1 | -0.06
Oc1cccnc1CN1CCOC[C@H]1c1nc[nH]n1 | -4 | 0.72
COc1ccc(C(=O)N2CCC[C@@]3(C2)NC(=O)N(Cc2ccc(C)cc2)C3=O)cc1 | 11 | -1.39
COc1ccc(F)c(F)c1CN1CCN(c2ccnc3nncn23)CC1 | -1 | 0.18
COC(CN1CCNC(=O)[C@@H]1c1ccc(F)cc1C)OC | -10 | 1.6
Cc1[nH]c2ccccc2c1C(c1ccc2c(c1)OCO2)c1c(C)[nH]c2ccccc12 | 34 | -3.85
COCCc1nc([C@@H](N)Cc2ccc(OC)cc2)n(C2CCCCC2)n1 | -2 | 0.28
CC(C)(C)NCC(=O)Nc1cc(F)cc(F)c1 | -10 | 1.62
Cc1cc(C)c(CN2CCN(C)CC2)cc1CN(C)Cc1nccs1 | -11 | 1.99
COC[C@H]1CCCN(C(=O)Cc2ccc3[nH]c(=O)[nH]c3c2)CC1 | -7 | 1.29
COCCNC(=O)c1cc2n(n1)C[C@@](C)(C(=O)NCc1ccc(F)cc1)N(C)C2=O | 14 | -1.62
Cc1cc(C)n([C@@H](C)CNC(=O)Nc2ccc3c(c2)C(=O)N(C2CC2)C3=O)n1 | -7 | 0.94
CC(=O)Nc1ccc(-c2cc(C(=O)N3CCN(C4CCCCC4)CC3)c3cc(C)ccc3n2)cc1 | 7 | -0.85

SMILES | % Inhibition [%] | Z score
COC(=O)C(C)(C)NS(=O)(=O)c1ccc(OC)c(Cl)c1 | -14 | 2.27
COc1ccc(Oc2nc(N3CCC(C)CC3)nc3c2CN(C(=O)Cc2ccc(F)cc2)CC3)cc1 | -5 | 0.66
COc1nc(N(C)CC2(CO)CCC2)ncc1F | -5 | 0.7
CCC(C(=O)N1C2CCC1CC(n1ccnc1)C2)c1ccccc1 (stereo not drawn) | 8 | -1.03
C[C@@H]1COCCN(C(=O)c2ccnc(OC(F)F)c2)C1 | 7 | -0.88
CC1CCN(Cc2ccccc2)CC1NS(=O)(=O)c1c(C2CC2)cnn1C (stereo not drawn) | -3 | 0.26
CC(=O)Nc1c(-c2ccc(F)cc2)c(C)nn1-c1ccc(C(=O)Nc2nc(C)cs2)cc1 | -1 | 0.19
CCN(Cc1nc(C(C)C)no1)S(=O)(=O)c1ccc(O)c(C(=O)O)c1 | -6 | 0.86
c1c[nH]c(CNc2ccc(N3CCc4sccc4C3)cc2)n1 | 23 | -3
Cn1ccnc1[C@@]1(CNC(=O)c2c(C3CC3)cnn2C)NC(=O)NC1=O | -20 | 2.11
O=S(=O)(Cc1ccon1)N1CCN(Cc2cccnc2)CC1 | 39 | -5.25
CCN(C(=O)N[C@H]1CC(=O)N(c2ccc3c(c2)OCCO3)C1)C1CCCCC1 | 10 | -1.23
COc1ccc(CNC(=O)c2ccc(-n3nnc4cccnc43)c(C)c2)cc1 | 4 | -0.49
Clc1cnn(CCc2nc(-c3ccn4c3CCCC4)no2)c1 | 7 | -1.19
Cc1ccccc1NS(=O)(=O)c1c(C)sc(C)c1-c1onc(C)c1C | -8 | 1.34
CC(OC1CCCCCC1)C(=O)N1CCCC(c2nnn[nH]2)C1 (stereo not drawn) | -7 | 1.25
COc1ccc(CN2C[C@@H](O)C[C@H]2c2nnc3n2CCN(C(=O)C(C)C)C3)cc1C | -1 | 0.22
C#CCNC(=O)N(C)CCOCC1CC1 | 5 | -0.77
Cc1cc(C(=O)Nc2nc(-c3ccc4c(c3)CCCC4)cs2)no1 | 2 | -0.21
CCCNC(=O)c1coc(CN2CCN(Cc3ccccc3F)CC2)n1 | -16 | 1.51
CCc1nc(C(C)C)ccc1C(=O)N1CCO[C@@H]2CCN(CC)C[C@@H]21 | -2 | 0.42

SMILES | % Inhibition [%] | Z score
CCc1nc2c(c(N3CCCC3)n1)C1(CCCC1)Cc1ccccc1-2 | -2 | 0.23
O=C(c1cc2ccccc2o1)N1CCC(COc2cc3c(nn2)CCCC3)CC1 | -1 | 0.13
C=CCN(CC(=O)N(CCc1ccccc1)Cc1ccco1)C(=O)Nc1c(C)cccc1C | -17 | 1.98
COCCCNC(=O)c1cn(CCc2ccccn2)cc(C(=O)NC2CCCCCCC2)c1=O | 1 | -0.11
O=C(CCc1ccc(-c2ccccc2)cc1)N[C@H]1CCOC1 | -15 | 1.36
CCc1ccccc1OC(=O)c1csc(C)n1 | 2 | -0.32
CC(C)(F)C(=O)N1CCC(OCc2ccc(Cl)c(Cl)c2)CC1 | 4 | -0.36
Oc1cc(-n2ccnc2-c2cccnc2)cc(F)c1F | -6 | 0.59
Cc1ccnc(C)c1C(=O)N1CCC(N2CCN(c3ncc(C(F)(F)F)cc3Cl)[C@@H](C)C2)CC1 | -11 | 1.4
CCCc1nnc(NC[C@@H]2CCCN3CCCC[C@H]23)o1 | -10 | 1.67
Cc1c(C(=O)NCc2nccs2)ccn1C | -12 | 2.37
CN1CCC[C@H]1C(=O)N1CCC2(CCC(=O)N(CCc3ccccn3)C2)CC1 | -10 | 1.29
COc1ccc(C)cc1CN(C)[C@@H](C)C(N)=O | -11 | 1
Cn1ncnc1COc1ccc(OCc2ccccc2)cc1 | 4 | -0.39
CN(Cc1cccnc1)C(=O)[C@@]1(C)CC1(Cl)Cl | -10 | 1.66
CC[C@]1(C)N=C(Nc2cccc3ccccc23)OC1=O | -3 | 0.4
COC(=O)c1cc(CNc2ccc(F)cn2)c[nH]1 | -3 | 0.4
CN1CCCN(C(=O)CCc2nc3ccccc3o2)CC1 | -10 | 1.48
CCOC(=O)N1CCc2c(sc(NCc3cccc(F)c3)c2C(=O)Nc2cc(Cl)ccc2OC)C1 | -3 | 0.54
Cc1ccc(Cl)cc1NS(=O)(=O)c1cc(-c2cc(C(F)(F)F)on2)sc1C | -4 | 0.6
CC(C)C[C@@H](c1cccnc1)n1cnc2ccncc2c1=O | -9 | 0.98
